Experimental findings from the antibiotic and cytotoxicity screens of Wong et al. (2023) are described below.

The list shows a part of the results.

This assay relates to S. aureus RN4220. Description: growth inhibition call (relative growth <= 0.2). The settings on record: 50 µM.
As to `CCOC(=O)C1=C(C)N[C@@]2(O)C[C@@H]1[C@H]1CO[C@@H]2O1`, the growth inhibition call is “inactive”. Consider `C[C@@H]1CN([C@H](C)CO)C(=O)c2ccccc2-c2ccccc2CO[C@@H]1CN(C)Cc1ccc(-c2ccccc2)cc1`, for which the growth inhibition call is “inactive”. As for `CC(C)Oc1ccc(S(=O)(=O)N2CCN(c3ccc(-c4ncco4)c(OCC(=O)O)c3)CC2)cc1`, the growth inhibition call was “inactive”. The entry for `Cc1cc(C)c2c(c1)[C@@H](N(Cc1cc(C(F)(F)F)cc(C(F)(F)F)c1)c1nnn(C)n1)CCCN2C[C@H]1CC[C@H](C(=O)O)CC1` is “inactive”; for `C[C@H](CO)N1C[C@H](C)[C@@H](CN(C)Cc2ccc(C(F)(F)F)cc2)Oc2ccc(NC(=O)Nc3ccccc3)cc2CC1=O` it is “inactive”; for `CC(C)NC(=O)N(C)C[C@H]1Oc2cc(C#Cc3cccc(F)c3)ccc2S(=O)(=O)N([C@H](C)CO)C[C@H]1C` it is “inactive”. With `Cc1ccc(S(=O)(=O)N(C)C[C@H]2OCCCC[C@@H](C)Oc3ccc(NC(=O)c4ccccc4)cc3C(=O)N([C@H](C)CO)C[C@@H]2C)cc1`, the growth inhibition call is “inactive”. In the case of `C[C@H](CO)N1C[C@H](C)[C@H](CN(C)Cc2ccc(C(=O)O)cc2)Oc2c(NC(=O)Nc3cccc4ccccc34)cccc2C1=O` it was “inactive”; in that of `NCc1nc2c([nH]1)CCCC2`, “inactive”.
